The experiment relates to Salmonella enterica (NBRC3313). Type of experiment: cell-based. The note with it: 7,500 ppm agent diluted as appropriate.

Turning to zinc gluconate, the “Minimum Inhibitory Concentration” value worked out at 400 ppm.

Source of the values: US20250268857A1 (priority 2020, published 2025).
